Laboratory results from PubChem BioAssay AID1645882 (National Center for Advancing Translational Sciences (NCATS), 2021).
Screen size: about 16,000 compounds; about 120 (0.75%) were called active. Inconclusive results (about 4%) are left out. The call rests on the fitted dose curve; in most records, active means well fitted inhibition curve with a large enough effect; inconclusive means small, poorly fitted or top-dose-only effect; inactive means no such curve, though single readings can be large or run the other way. The list shows a part of the results.

Target: Rap guanine nucleotide exchange factor 3 (Homo sapiens) (UniProt O95398)
Experiment: Validation qHTS for antagonist of cAMP-regulated guanine nucleotide exchange factor 3 (EPAC1);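 further: plate controls were DMSO for no effect and ATA control for full effect; nearly all actives have a fitted effect of over 75% in size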
Details: EPAC1 Rap1B-BODIPY-GDP exchange, fluorescence; series mostly up to 150 µM; activity change, negative = inhibition: at the top concentration
Procedure, shortened: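 Nucleotide exchange followed as fluorescence loss when BODIPY-GDP leaves Rap1B (480 nm excitation, 540 nm emission), read at 5 min intervals over 30 min. Reaction: 100 nM EPAC1, 250 nM RAP1B-BODIPY-GDP, 50 uM GDP; ATA and DMSO define normalization.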

UniProt O95398, sequence (O95398 whole entry, looked up): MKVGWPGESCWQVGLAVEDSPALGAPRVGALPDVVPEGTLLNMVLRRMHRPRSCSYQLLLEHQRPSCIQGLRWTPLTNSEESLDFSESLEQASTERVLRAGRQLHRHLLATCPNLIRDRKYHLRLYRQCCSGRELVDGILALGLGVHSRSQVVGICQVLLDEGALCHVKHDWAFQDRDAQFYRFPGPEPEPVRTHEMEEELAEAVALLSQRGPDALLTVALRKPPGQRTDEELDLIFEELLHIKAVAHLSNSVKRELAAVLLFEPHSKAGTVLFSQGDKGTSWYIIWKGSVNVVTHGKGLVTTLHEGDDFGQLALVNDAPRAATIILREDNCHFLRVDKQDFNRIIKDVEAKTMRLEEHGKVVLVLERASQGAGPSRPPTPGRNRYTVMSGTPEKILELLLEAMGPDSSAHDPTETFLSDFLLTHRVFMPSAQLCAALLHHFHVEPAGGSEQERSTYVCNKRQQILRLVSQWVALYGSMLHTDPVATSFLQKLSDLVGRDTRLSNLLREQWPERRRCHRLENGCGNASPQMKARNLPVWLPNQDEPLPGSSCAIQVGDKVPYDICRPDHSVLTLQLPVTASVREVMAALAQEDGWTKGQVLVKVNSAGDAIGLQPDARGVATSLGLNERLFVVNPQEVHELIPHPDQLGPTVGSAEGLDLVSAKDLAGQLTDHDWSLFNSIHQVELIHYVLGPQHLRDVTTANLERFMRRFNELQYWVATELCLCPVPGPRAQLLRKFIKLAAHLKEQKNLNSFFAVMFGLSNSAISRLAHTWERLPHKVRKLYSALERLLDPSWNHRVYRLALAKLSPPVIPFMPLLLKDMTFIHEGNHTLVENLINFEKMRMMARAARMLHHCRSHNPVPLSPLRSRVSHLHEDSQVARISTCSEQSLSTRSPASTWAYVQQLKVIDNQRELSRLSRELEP

Activity change, negative = inhibition, inactive:
CC(N)C12CC3CC(CC(C3)C1)C2 (stereo not drawn) 13.7%
CCCCc1ccc2nc(NC(=O)OC)[nH]c2c1 8.5% [at 75.8 µM]
COc1ccc(CNC(=O)[C@@H]2CC=C[C@@H]3CCN(C4CC4)C(=O)[C@@H]32)cc1 4.53%
COc1cc2oc(=O)c3c4c(cc5ccc(c1CCN(C)C)c2c53)OCO4 23%
CS(=O)(=O)Nc1ccc([N+](=O)[O-])cc1OC1CCCCC1
NC(N)=NCC1COc2ccccc2O1 (stereo not drawn) 2.96%
COc1ccc2[nH]cc(CCNc3cc(-c4ccc(C(=O)N(C)C)cc4)ncn3)c2c1 -13%
Nc1c(Br)cc(Br)cc1CNC1CCC(O)CC1 (stereo not drawn)
COC(=O)C(N)CS (stereo not drawn) 12.3%
CC(=O)OC1CCC2(O)CC1(C)CCC1C2CC1(C)C (stereo not drawn) 14.1%
Cc1c(C(=O)NCCO)[n+](=O)c2ccccc2n1[O-] 7.03%
COc1ccc(-c2oc3ccccc3c(=O)c2O)cc1 3.28%
C[C@H]1C[C@@H]2[C@H]([C@@H](O)C[C@@]3(C)[C@H]2CC[C@]3(O)C(=O)COC(=O)CCC(=O)O)[C@@]2(C)C=CC(=O)C=C12 20.1%
OCCOCCOCCO 24.2%
Cc1onc(-c2ccccc2)c1C(=O)NCCN1Cc2ccccc2OC(c2ccsc2)C1 (stereo not drawn) 14.3%
Nc1cc(-c2ccncc2)c[nH]c1=O
CCOC(=O)c1c(C)n(C)c2ccc(O)cc12 6.13%
O=C(Nc1cccc(F)c1)N1CCCC2(CCNCC2)C1 5.58%
CCC(=O)OCC(=O)[C@@]1(OC(=O)CC)[C@H](C)C[C@H]2[C@H]3[C@H]([C@@H](O)C[C@@]21C)[C@@]1(C)C=CC(=O)C=C1C[C@H]3Cl 14.3% [at 75.8 µM]
CC(C)CN1CCC2(CC1)CCN(C(=O)c1cccn1C)CC2 16.1%
c1ccc2nc(C3=NCCN3)cnc2c1 -11%
O=C(Cc1c[nH]c2ccccc12)N1CCC(n2c(C3CCCO3)nc3cc(C(F)(F)F)ccc32)CC1 (stereo not drawn) -11.3%
CCOC(=O)C[C@H]1c2cc(C(F)(F)F)ccc2S(=O)(=O)N1Cc1ccccc1 -15.9%
CN1CCN(CCC(=O)N2c3ccccc3Sc3ccc(C(F)(F)F)cc32)CC1 16.5%
O=C(O)c1cc(=O)c2ccc(Cl)cc2[nH]1
O=C(Nc1ccccc1)[C@@H]1CC=C[C@@H]2CCN(C3CCCCC3)C(=O)[C@@H]21 17.4%
O=C(CC(=O)c1ccccc1)c1ccccc1 -16.5%
COc1ccc(-n2c(=O)c(C)nc3cncnc32)cc1 8.58%
Cc1ncc2c(c1CNC(=O)c1ccc3c(c1)OCO3)CCN(C(=O)c1ccc3ccccc3c1)C2 -5.93%
O=C1N[C@@H](Cc2c[nH]c3ccccc23)C(=O)N[C@H]1Cc1c[nH]c2ccccc12 -11.2%
C[C@@H]1O[C@@H](OC[C@H]2O[C@@H](Oc3c(-c4cccc(O)c4O)oc4cc(O)cc(O)c4c3=O)[C@H](O)[C@@H](O)[C@@H]2O)[C@H](O)[C@H](O)[C@H]1O 9.86%
CN(C)CC[C@@H](c1ccc(Cl)cc1)c1ccccn1
CC(=O)OCC(=O)[C@@]1(O)CCC2C3CCC4=CC(=O)CC[C@]4(C)C3[C@@H](O)C[C@@]21C (stereo partly drawn) 27.2%
COC(=O)C1CCN(Cc2ccc3c(c2)CN(C(=O)c2ccnn2C)CCO3)CC1 5.49%
COc1ccc(C(C)=O)cc1 18.3%
N#Cc1ccc(CN2CCC3(CC2)CCN(C(=O)c2ccco2)CC3)cc1 21.2%
Cc1ccc2c(Cl)cc(Cl)c(O)c2n1
COc1ccccc1CNc1cc(-c2ccoc2)ncn1 6.79%
COc1ccc2[nH]cc(CCNc3nc(-c4ccc(N(C)C)cc4)nc4ccccc34)c2c1 -19.2%
CC(C)C[C@@H](CO)N1CCN(Cc2ccc(Br)cc2)CCC1=O 13.7%
C=C1CCC(OC(C)=O)/C(C)=C/CC2[C@H]1CC2(C)C (stereo partly drawn) 4.9%
CN(C)CC/C=C1/c2ccccc2CSc2ccccc21 -7.96% [at 75.8 µM]
N[C@H](C(=O)O)[C@H](OCc1ccccc1)C(=O)O 4.05%
COc1ccc2c(c1)CCc1cnc(-n3ncc(C(=O)NCC(C)(C)CN(C)C)c3C)nc1-2 -15.2%
COc1ccc(SCCN2CC[C@@H](NC(=O)OCc3ccccc3)CCC2=O)cc1 3.6%
CN(C)C(=O)c1ccc(-c2nccc(-n3ccnc3)n2)cc1 18.7%
OC(CCN1CCCCC1)(c1ccccc1)C1CCCCC1 (stereo not drawn)
CCNc1ncc2nc(-c3cc(F)cc(F)c3)c(=O)n(Cc3cccs3)c2n1 27.4%
COCc1c(C(=O)N2CCN(C)CC2)cnn1-c1ncc2c(n1)-c1ccccc1CCC2 10.1%
Cc1ncc2c(c1CNC(=O)c1cncs1)CCN(C(=O)c1cc(F)c(F)cc1F)C2 5.25%
COc1ccc(-n2c(=O)c(CCc3ccccc3)nc3cncnc32)cc1 -5.37%
CC(=O)Nc1cc(C(=O)N2CC3(C)CC2CC(C)(C)C3)cc2ncn(CCc3ccccn3)c12 (stereo not drawn) 13.5%
COc1ccc(C[C@H](C)NC[C@@H](O)c2ccc(O)c(NC=O)c2)cc1 -8.27%
COc1ccc(CCNc2ncnc3sc(C(=O)N(C)C)c(C)c23)cc1OC 18.5%
O=C(OCc1ccccc1)c1ccccc1
CS(=O)(=O)N1CCC2(CCN(C(=O)Nc3cccc(F)c3)CC2)CC1 12.8%
N#Cc1cccc(NC(=O)N2CC[C@@]3(CCCN(C(=O)c4ccco4)C3)C2)c1 14.8%
Cc1csc(-c2coc3cc(O[C@@H]4O[C@H](CO)[C@@H](O)[C@@H](O)[C@H]4O)ccc3c2=O)n1 5.97%
CN(C)c1ccc(-c2ccc3ncnc(N(C)C)c3c2)cc1 -4.39%
CN(C)CCOC(=O)COc1ccc(Cl)cc1
CCOC(=O)c1cccnc1 9.46%
Brc1c(NC2=NCCN2)ccc2nccnc12
O=S(=O)(c1ccccc1)N1CCC[C@@]2(CCN(Cc3nccs3)C2)C1 13.2%
O=S1(=O)CCOCCCN1Cc1ccccc1F 5.74%
O=C1CC(c2ccc(O)cc2)Oc2ccccc21 (stereo not drawn) 11.1%
O=C(C[n+]1cccc2cccc(O)c21)c1ccc(Cl)cc1 20.4%
COc1cc(CNCc2cc3ccc(F)cc3nc2N2CCOCC2)cc(OC)c1OC 20%
O=C(NC1CCC(n2cc(C(=O)NC3CC3)nn2)CC1)C(=O)c1ccccc1 (stereo not drawn) 12.1%
C#Cc1cccc(Nc2ncnc3cc(OC)c(OC)cc23)c1 11%
C[C@H](N=C(NC#N)Nc1ccncc1)C(C)(C)C -10.6%
CN1C[C@H](C(=O)N[C@@]2(C)O[C@@]3(O)C4CCCN4C(=O)C(Cc4ccccc4)N3C2=O)C[C@H]2c3cccc4[nH]cc(c34)C[C@H]21 (stereo partly drawn) 11.3%
CCC(C)[C@H]1COCCS(=O)(=O)N1Cc1ccccc1F (stereo partly drawn) 0.167%
O=C(c1cccc(F)c1)N1CCC[C@@]2(CCN(C(c3ccccc3)c3ccccc3)C2)C1 -3.86%
O=C(C[N+]12CCCc3cccc(c31)CCC2)c1ccc(Cl)c2ccccc12 -20.4%
Cc1c(C)n(CCN(C)C)c2ccc(C(=O)OCCN(C)C)cc12 0.933%
Cc1c[nH]c(=O)n(CCCN2CCN(c3ccccc3OCC(F)(F)F)CC2)c1=O -2.34%
CCCCC/C=C\C/C=C\C/C=C\C/C=C\CCCC(=O)O[C@H](COCCCCCCCCCCCCCCCC)COP(=O)([O-])OCC[N+](C)(C)C 11.9% [at 15.3 µM]
COc1ccc2c(c1)OC(C)CN(CCNC(=O)c1csc(-c3cccs3)n1)C2 (stereo not drawn) 20.2%
COCC(=O)N1CCC2(CC1)CN(Cc1nccs1)C2 37.8%
C[C@]12CC[C@@H]3c4ccc(O)cc4C[C@@H](CCCCCCCCCS(=O)CCCC(F)(F)C(F)(F)F)[C@H]3[C@@H]1CC[C@@H]2O (stereo partly drawn)
COc1ccc2cc1Oc1ccc(cc1)C[C@H]1c3cc(c(OC)cc3CCN1C)Oc1c(OC)c(OC)cc3c1[C@H](C2)N(C)CC3
CCCCCCCCCCCCSCCOCCO 19.4%
C[C@@H](NC(=O)/C(C#N)=C/c1ccc(O)c(O)c1)c1ccccc1 35.9% [at 75.8 µM]
COc1ccc(-c2nc3cnc(N4CCNCC4)nc3n(-c3ccccc3)c2=O)cc1 12.1%
O=C(c1csnn1)N1CCC2(CC1)CCN(c1ccccc1)CC2 24.3%
COc1cccc(Cn2c(=O)c(-c3ccccc3)nc3cnc(N(C)C)nc32)c1 3.51%
Cc1cccc(CNC(=O)c2cnn(-c3ncc4c(n3)-c3ccccc3CC4)c2C2CC2)n1 -0.034%
CC(=O)OCC(=O)[C@@]1(O)[C@H](C)C[C@H]2[C@@H]3C[C@H](F)C4=CC(=O)C=C[C@]4(C)[C@H]3[C@@H](O)C[C@@]21C 22.1%
O=C(C[N+]1(CCc2ccccc2)CCOCC1)c1ccccc1 27.8%
CNCC[C@H](Oc1ccccc1OC)c1ccccc1 2.96%
Fc1ccc(C(c2ccc(F)cc2)N2CCN(C/C=C\c3ccccc3)CC2)cc1 -19.4%
NC(=O)Oc1ccc(Cc2ccccc2)cc1 6.34%
O=C(c1cccc(F)c1)N1CCC[C@@]2(CCN(Cc3ccccc3)C2)C1 14.8%
CC(C)CN1CCCC2(CCN(C(=O)c3ccco3)CC2)C1 13.1%
Nc1nc2c(c(=O)[nH]1)N(C=O)C(CNc1ccc(C(=O)NC(CCC(=O)O)C(=O)O)cc1)CN2 (stereo not drawn) 12.1%
COc1cc(=O)n2c(c1C(=O)N(C)Cc1nccs1)CCN(Cc1ccc(F)c(F)c1)CC2 7.83%
Cc1ccc(C(=O)Nc2cccc(-c3nc(CNC(=O)c4ccc5ccccc5n4)c(C)o3)c2)s1 1.13%
CCn1nc(C)c(CN2Cc3ccccc3OC(c3ccccc3OC)C2)c1C (stereo not drawn) 6.12%
O=C(O)c1ccccc1-c1ccc(C(F)(F)F)cc1 -17.3%
Nc1ncnc2c1ncn2CCOCP(=O)(O)O 16.2%
CC(C)C1=CC2=CC[C@@H]3[C@@](C)(C(=O)O)CCC[C@]3(C)C2CC1 (stereo partly drawn) -15.6%
COC(=O)[C@H](CC(C)C)NS(=O)(=O)NC(=O)OC(C)(C)C 10.9%
CCNc1ncc2nc(C)c(=O)n(C[C@H]3CCCO3)c2n1 -2.85%
